Test results as given in PMC4336329 (PLoS ONE, 2015).
About 14,000 (4.5%) of roughly 310,000 compounds showed an effect of 50% or more. The effect is printed as a negative number. This is one part of the list.

target: human ether-à-go-go-related gene (hERG) potassium channel (human, UniProt Q12809); test: primary screen, population patch clamp on CHO cells stably expressing hERG
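Note: peak tail current of the secondary pulse compared with the same well before compound.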

Sequence of human ether-à-go-go-related gene (hERG) potassium channel (Q12809 whole entry, looked up): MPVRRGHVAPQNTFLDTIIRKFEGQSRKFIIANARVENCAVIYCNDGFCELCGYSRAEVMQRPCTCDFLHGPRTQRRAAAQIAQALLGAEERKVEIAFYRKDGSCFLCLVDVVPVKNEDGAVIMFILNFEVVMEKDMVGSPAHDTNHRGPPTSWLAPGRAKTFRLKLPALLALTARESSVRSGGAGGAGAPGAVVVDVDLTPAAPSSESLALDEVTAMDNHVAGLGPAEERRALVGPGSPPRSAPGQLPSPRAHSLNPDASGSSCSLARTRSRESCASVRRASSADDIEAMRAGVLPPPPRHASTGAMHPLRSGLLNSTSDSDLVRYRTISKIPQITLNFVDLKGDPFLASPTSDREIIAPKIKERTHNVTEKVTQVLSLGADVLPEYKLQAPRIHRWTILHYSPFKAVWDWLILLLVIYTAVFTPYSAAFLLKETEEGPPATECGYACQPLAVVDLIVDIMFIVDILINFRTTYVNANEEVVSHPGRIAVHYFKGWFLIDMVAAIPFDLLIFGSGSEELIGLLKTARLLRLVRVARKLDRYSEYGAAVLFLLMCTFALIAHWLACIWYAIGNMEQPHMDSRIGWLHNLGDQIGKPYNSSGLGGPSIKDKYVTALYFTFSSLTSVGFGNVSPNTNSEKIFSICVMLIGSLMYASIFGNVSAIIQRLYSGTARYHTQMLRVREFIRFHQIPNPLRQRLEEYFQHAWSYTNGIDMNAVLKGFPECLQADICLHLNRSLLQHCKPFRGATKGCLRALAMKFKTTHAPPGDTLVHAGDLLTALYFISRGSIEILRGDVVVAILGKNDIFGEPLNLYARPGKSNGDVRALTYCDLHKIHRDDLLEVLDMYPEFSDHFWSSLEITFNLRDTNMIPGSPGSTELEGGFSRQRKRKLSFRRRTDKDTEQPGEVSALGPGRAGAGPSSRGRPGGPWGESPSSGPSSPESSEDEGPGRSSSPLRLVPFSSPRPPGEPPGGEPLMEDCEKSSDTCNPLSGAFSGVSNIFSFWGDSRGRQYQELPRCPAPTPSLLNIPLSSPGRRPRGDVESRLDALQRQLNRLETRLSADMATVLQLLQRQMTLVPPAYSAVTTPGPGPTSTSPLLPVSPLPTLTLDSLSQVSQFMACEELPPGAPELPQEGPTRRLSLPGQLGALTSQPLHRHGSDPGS

SMILES	hERG current change (%, negative = inhibition) at 10uM [%]
Cc1ccc(C(CNS(=O)(=O)c2ccc(F)cc2)N2CCN(C)CC2)cc1 (stereo not drawn)	-58.3
Cc1cc(C(=O)N/N=C/c2ccc3c(c2)OCO3)c2ccccc2n1	-6.41
C=CC[C@@H]1C=C[C@H](O/N=C/[C@@H](NS(=O)(=O)c2ccc(C)cc2)[C@H](C)/C=C/CC(=O)OC)[C@@H](CO)O1	0.961
Cc1ccc(/C=N/Nc2nc3ccccc3s2)o1	-8.33
CCCC(=O)Nc1ccccc1NC(=O)c1ccc(OC(C)=O)cc1	9.55
CCn1c(C)c(C)c2cc(C(=O)NCCN3CCCCCC3)ccc21	-25
CCOC(=O)c1cn2nc(SCc3ccccc3)nc2nc1C	-14.3
Cc1ccc(/C=C2\SC(=S)N(CC(=O)Nc3ncc(Cc4ccccc4Cl)s3)C2=O)cc1	-6.81
Cc1ccc(NC(=O)C2CCCN2C(=O)NCc2ccccc2)cc1 (stereo not drawn)	0.117
CCCCCc1nnc(NC(=O)CS(=O)(=O)Cc2ccccc2)s1	1.04
COc1ccc(CCN(Cc2cc3ccc(C)cc3[nH]c2=O)C(C)=O)cc1OC	-65.1
CCCCOC(=O)Cn1c(=O)c2c(nc(Br)n2Cc2ccccc2)n(C)c1=O	-4.05
COc1ccc(-n2c(Cc3cccn3C)nnc2SCC(=O)Nc2ccccc2)cc1	-19.5
COCc1ccc(C(=O)N2CCCC(N(C)Cc3ccccc3)C2)s1 (stereo not drawn)	-8.86
NS(=O)(=O)c1ccc(N=Cc2c(O)n(-c3ccccc3)c(=O)[nH]c2=O)cc1	6.2
COc1ccccc1CNC(=O)C1CCC(CNS(=O)(=O)c2ccc(C)cc2)CC1 (stereo not drawn)	25.9
O=c1cc(CSc2nnnn2-c2ccccc2)[nH]c2[nH]n(-c3ccccc3)c(=O)c12	-3.95
Cc1ccc(C2CC(c3cccs3)=NN2C(=O)CSc2nc3ccccc3o2)cc1 (stereo not drawn)	4.94
CCOc1ccccc1OCCOc1cccc(C(F)(F)F)c1	13.6
Cc1onc(-c2ccccc2)c1C(=O)NNC(=S)NC(=O)c1ccc(Cl)cc1Cl	12.3
CC1=C(C(=O)Nc2ccccc2F)C(c2ccsc2)C2=C(CC(c3ccccc3)CC2=O)N1 (stereo not drawn)	-11.8

SMILES	hERG current change (%, negative = inhibition) at 10uM [%]
COc1cccc(NC(=O)c2cnc(SC)nc2)c1	12.4
CC(C)C1N=C(c2ccc3c(c2)OCO3)CC(c2ccccc2O)N1 (stereo not drawn)	-20.5
O=C(CNC(=O)c1ccccc1Cl)Nc1ccncc1	1.41
CCCCNC(=O)c1cccc(NC(=O)C(=O)c2ccccc2NC(C)=O)c1	-19.1
CCN(CC)S(=O)(=O)c1cccc(NC(=O)C2SC(=Nc3ccc(C)cc3C)C(C(=O)NCC3CCCO3)=C2N)c1 (stereo not drawn)	5.02
COc1cccc(C(=O)NC2CC3CCCC(C2)N3S(=O)(=O)c2ccccc2)c1 (stereo not drawn)	-75.8
C=CCn1c(SCC(=O)Nc2ccc(Br)cc2)nc(O)c(CC)c1=O	4.3
NC(=O)COC(=O)c1ccccc1OCc1ccc(Cl)cc1	-5.5
CC(C)(C)OC(=O)NNC(=O)C12CC3CC(CC(C3)C1)C2	10.9
COc1cccc(C2CC(C(F)(F)F)n3ncc(C(=O)Nc4c(C)n(C)n(-c5ccccc5)c4=O)c3N2)c1 (stereo not drawn)	5.82
Cc1ccc2c(C)c(C(=O)NCC(C)(C)N3CCOCC3)oc2c1C	-7.07
CCC(c1nnnn1Cc1cccs1)N1CCN(C2CCCC2)CC1.Cl (stereo not drawn)	-22.3
COc1ccc(OC)c(NC(=O)CCN2CCN(CCO)CC2)c1	11.6
O=C(N/N=C/c1ccc([N+](=O)[O-])o1)c1ccccc1NS(=O)(=O)c1cccs1	-1.99
Cc1nc(SCC(=O)c2ccccc2)c([N+](=O)[O-])[nH]1	9.37
Cn1ncc2c(N3CCCCC3)nc(NCCCO)nc21	11.9
COc1cc(NC(=O)CCS(=O)(=O)c2ccc3c(c2)oc(=O)n3C)cc(OC)c1	-37.9
O=C(O)c1ccc(Cl)c(S(=O)(=O)NCc2ccco2)c1	11.5
Cn1c(=O)c2ccccc2n(CC(=O)NC2CCCC2)c1=O	9.82
CNS(=O)(=O)c1cccc(C(=O)NCC(c2ccco2)N(C)C)c1 (stereo not drawn)	3.32
O=C(NCCc1ccccc1)c1ccc(Cl)c([N+](=O)[O-])c1	-27.2

SMILES	hERG current change (%, negative = inhibition) at 10uM [%]
COc1ccc(CNC(=O)CN(CC2CCCO2)C(=O)CNS(=O)(=O)c2ccc(C)cc2)cc1 (stereo not drawn)	-13.9
CN(C)CCNC(=O)/C(=C/c1ccc(-c2cccc([N+](=O)[O-])c2)o1)NC(=O)c1ccccc1	-75.4
CCOc1ccc(/C=C(\C(=O)O)c2ccc(S(=O)(=O)N3CCOCC3)s2)cc1OC	6.61
C[C@H](CCC(=O)[O-])[C@H]1CC[C@H]2[C@@H]3[C@H](O)C[C@@H]4C[C@H](O)CC[C@]4(C)[C@H]3C[C@H](O)[C@]12C.O.[Na+]	6.36
O=c1[nH]cnc2sc3c(c12)CCCCC3	-8.3
COc1cc(OC)cc(-c2c(-c3cccs3)c3cc(-c4cnc(OC)nc4)ccc3n2C)c1	1.57
CC(C)(C)c1ccc(C(=O)N2CCCCCC2=O)cc1	-6.48
Cc1c(C(=O)NCc2cccnc2)sc2nc(-c3ccc(F)cc3)cn12	-40.4
O=C(O)C1C2C=CC(O2)C1C(=O)Nc1ccc(S(=O)(=O)N2CCc3ccccc32)cc1 (stereo not drawn)	20.7
O=C(Nc1ccccc1N1CCOCC1)c1cc(=O)[nH]c2ccccc12	-3.96
COc1nccnc1NS(=O)(=O)c1ccc(NC(=S)NC(=O)c2cccnc2)cc1	13
CC(=O)NCC(=O)N(c1c(C)n(C)n(-c2ccccc2)c1=O)C1(C(=O)NC2CCCC2)CCCCC1	9.93
O=c1c(Cc2ccc(Cl)cc2)c(O)ccn1Cc1cccs1	4.04
CC1(C)Cc2c(sc3[nH]c(=S)n(Cc4ccccc4)c(=O)c23)CO1	12.6
Cc1cccn2c(=O)c3cc(C(=O)NC4CCCCC4)c(=N)n(Cc4ccccc4)c3nc12	-74.6
O=C(NCCCN1CCc2ccccc2C1)C1CCN(c2nnc(-n3cccc3)s2)CC1	-55.6
CCC(=O)N1c2ccccc2NC2=C(C(=O)CCC2)C1c1ccc(N(C)C)cc1 (stereo not drawn)	9.42
COc1cc(C)ccc1OCCCCNCc1ccccc1.O=C(O)C(=O)O	-0.752
O=C(Nc1ccc(OC(F)(F)F)cc1)Oc1ccccc1N1CCCCC1	15.8
COc1ccc(-n2c(C)cc(C(=O)CN3C(=O)c4ccccc4C3=O)c2C)cc1	14.1
COc1ccc(-c2cc(=O)oc3c(C)c(OCC(=O)NCC4CCC(C(=O)O)CC4)ccc23)cc1 (stereo not drawn)	-2.21

SMILES	hERG current change (%, negative = inhibition) at 10uM [%]
CC(=O)c1ccc(OC(NC(=O)Cc2ccccc2)C(Cl)(Cl)Cl)cc1 (stereo not drawn)	-11.6
N#CC1C=Cc2ccccc2N1C(=O)c1ccccc1 (stereo not drawn)	6.84
CCOc1ccccc1N1CCN(S(=O)(=O)CC)CC1	11.8
O=C(/C=C/Nc1ccccc1C(F)(F)F)c1ccco1	-5.06
Cc1ccc(NC(=O)CN2CCC(NC(=O)Cc3ccccc3)CC2)cc1C	-12.8
CCc1ccccc1NCC(=O)Nc1ccccc1C(=O)OC	1.49
O=C(CNC(=O)c1ccccn1)N/N=C/c1ccccc1	4.84
Nc1n[nH]c(N)c1N=Nc1ccccc1	16.7
COc1cccc(NC(=O)Nc2ccc(C)c(Cl)c2)c1	5.82
O=C(NCc1nc2ccccc2[nH]1)C1=C[C@H](C2CC2)C[C@H](OCc2ccc(CO)cc2)O1	-2.57
COC(=O)C1=C(c2ccc(OC(F)(F)F)cc2)C[C@@H]2CC[C@H]1N2C(=O)NCc1cc(C)oc1C(F)(F)F	14.7
COc1ccc(N(C(=O)c2ccco2)C(C(=O)NC2CCCC2)c2cccnc2)c(OC)c1 (stereo not drawn)	-0.565
COc1ccc(C(C)(C)C)cc1NC(=O)c1[nH]c(C)c(C(C)=O)c1C	-9.84
COc1ccc(C(=O)O)cc1NC(=S)NC(=O)CSc1ccc(Cl)cc1	3.78
CC(=O)Nc1nnc(SCc2ccccc2F)s1	17.1
CCc1nnc(NC(=O)CSc2nc3c(c(=O)n2C)SC(C)C3)s1 (stereo not drawn)	-2.54
COc1cccc(C2CC(c3ccccc3OC)n3ncnc3N2)c1 (stereo not drawn)	-9.51
Cc1ccc2c([N+](=O)[O-])c(C)ccc2n1	8.15
C=CCNC(=O)CNS(=O)(=O)c1ccc(F)cc1	4.33
CCOC(=O)C(C)NC(=O)C(NC(=O)C1CCC(CC)CC1)C(C)C (stereo not drawn)	-2.49
COc1ccc(OCCSc2nc3nc(C)cc(C)n3n2)cc1	-13.1
